This passage reports growth inhibition call results from the antibiotic and cytotoxicity screens of Wong et al. (2023).

Molecules are shown by their SMILES. The list shows a part of the results.

For this assay, the system named is S. aureus RN4220. As to the kind of experiment: growth inhibition call (relative growth <= 0.2). The following applies: 50 µM.
Regarding `C[C@@H]1CN([C@@H](C)CO)C(=O)Cc2cc(NS(=O)(=O)c3ccc(F)cc3)ccc2O[C@H]1CN(C)S(C)(=O)=O`, the growth inhibition call was “inactive”.
As for `COC(=O)C1=C(C#N)NC(C)=C(C(=O)OC(C)C)C1c1cccc([N+](=O)[O-])c1` (centres undefined), the growth inhibition call is “inactive”.
Take `COc1ccc(NC(=O)N(C)C[C@@H]2Oc3cc(C#CCN(C)C)ccc3S(=O)(=O)N([C@@H](C)CO)C[C@H]2C)cc1`: the growth inhibition call is “inactive”.
On to `C[C@@H]1CN([C@@H](C)CO)C(=O)Cc2cc(NC(=O)Nc3ccc(C(F)(F)F)cc3)ccc2O[C@@H]1CN(C)C(=O)Nc1ccccc1`, for which the growth inhibition call is “inactive”.
Take `Cc1noc(C)c1S(=O)(=O)Nc1ccc2c(c1)C(=O)N([C@@H](C)CO)C[C@@H](C)[C@H](CN(C)S(C)(=O)=O)O2`: the growth inhibition call is “inactive”.
Next, `COCC(=O)N1C[C@@H](C)[C@H](OC)CN(C)C(=O)c2ccc(NC(=O)Nc3cccc(F)c3)cc2OC[C@H]1C`: “inactive”; `C[C@@H]1CN([C@H](C)CO)C(=O)c2cc(NS(C)(=O)=O)ccc2O[C@@H]1CN(C)S(=O)(=O)c1cn(C)cn1`: “inactive”; `COc1ccc(-c2cnc3c(c2)C(=O)N([C@@H](C)CO)C[C@@H](C)[C@H](CN(C)C(=O)C2CCOCC2)O3)cc1`: “inactive”.
As to `CC1CC2C(C(O)CC3(C)C2CCC3(O)C(=O)COC(=O)CCC(=O)[O-])C2(C)C=CC(=O)C=C12.[Na+]` (centres undefined), the growth inhibition call is “inactive”.
`COc1ccc(S(=O)(=O)Nc2ccc3c(c2)C(=O)N([C@H](C)CO)C[C@H](C)[C@H](CN(C)C(=O)c2ccccc2)OCCCC[C@@H](C)O3)cc1`: the growth inhibition call is “inactive”.
With `C[C@@H]1CCCCO[C@H](CN(C)C(=O)NC2CCCCC2)[C@H](C)CN([C@@H](C)CO)C(=O)c2cc(NC(=O)Nc3cccc4ccccc34)ccc2O1` the entry was “inactive”; with `C[C@@H]1CN([C@H](C)CO)C(=O)c2cc(NS(=O)(=O)c3cn(C)cn3)ccc2O[C@@H]1CN(C)S(=O)(=O)c1ccc(Cl)cc1`, “inactive”; with `O=C(C[C@@H]1CC[C@@H]2[C@H](COC[C@@H](O)CN2C(=O)Nc2ccc(Cl)c(Cl)c2)O1)NCc1ccncc1`, “active”.
As for `C[C@H](CO)N1C[C@H](C)[C@@H](CN(C)CC2CCCCC2)OCCCC[C@H](C)Oc2ccc(NC(=O)c3ccncc3)cc2C1=O`, the growth inhibition call was “inactive”.
As to `C[C@@H]1CCCCO[C@H](CN(C)C(=O)Nc2ccc(C(F)(F)F)cc2)[C@@H](C)CN([C@@H](C)CO)C(=O)c2cc(NS(=O)(=O)c3ccc(F)cc3)ccc2O1`, the growth inhibition call is “inactive”.
Take `C[C@@H]1CN([C@H](C)CO)C(=O)c2cc(NS(=O)(=O)c3ccc(Cl)cc3)ccc2O[C@@H](C)CCCCO[C@@H]1CN(C)C(=O)c1ccncc1`: the growth inhibition call was “inactive”.
For the compound `Nc1ccncc1N`, the growth inhibition call is “inactive”.
For `C[C@@H]1CN([C@@H](C)CO)C(=O)c2cc(NC(=O)Nc3cccc4ccccc34)ccc2O[C@@H](C)CCCCO[C@H]1CN(C)Cc1ccc2c(c1)OCO2`, the growth inhibition call is “inactive”.
Turning to `Cc1ccc(S(=O)(=O)Nc2cccc3c2O[C@@H](CN(C)C(=O)Nc2ccc(C(F)(F)F)cc2)[C@@H](C)CN([C@H](C)CO)C3=O)cc1`, the growth inhibition call is “inactive”.
Next, `C[C@H]1COC(=O)[C@H](Cc2ccc(F)cc2)CCC=CC[C@@H](CC(=O)N[C@H](CO)Cc2ccccc2)C(=O)N1`: “inactive”; `C[C@H]1CN([C@@H](C)CO)S(=O)(=O)c2ccc(C#CC3(O)CCCC3)cc2O[C@H]1CN(C)C(=O)Cc1ccncc1`: “inactive”; `C[C@@H](N)c1ccc(F)cc1F`: “inactive”.
`COc1ccc(NC(=O)Nc2ccc3c(c2)C(=O)N([C@H](C)CO)C[C@@H](C)[C@@H](CN(C)C(=O)C2CCCCC2)OCCCC[C@H](C)O3)cc1`: the growth inhibition call is “inactive”.
As to `CN(CC(=O)NCc1ccccn1)S(=O)(=O)c1cc(Br)cnc1N`, the growth inhibition call was “inactive”.
In the case of `C[C@H](CO)N1C[C@H](C)[C@H](CN(C)C(=O)CCCN(C)C)OCCCC[C@H](C)Oc2ccc(NC(=O)Nc3cccc4ccccc34)cc2C1=O`, the growth inhibition call was “inactive”.
For the compound `COc1ccc(CN(C)C[C@@H]2Oc3ccc(NS(C)(=O)=O)cc3CC(=O)N([C@@H](C)CO)C[C@H]2C)cc1`, the growth inhibition call was “inactive”.
Turning to `COc1ccc(NC(=O)N(C)C[C@@H]2OCCCC[C@H](C)Oc3ccc(NC(=O)NC4CCCCC4)cc3C(=O)N([C@@H](C)CO)C[C@@H]2C)cc1`, the growth inhibition call is “inactive”.
For `COc1ccc(NC(=O)N(C)C[C@H]2OCCCC[C@@H](C)Oc3ccc(NC(=O)Nc4ccc5c(c4)OCO5)cc3C(=O)N([C@H](C)CO)C[C@@H]2C)cc1`, the growth inhibition call was “inactive”.
For `CCCC(=O)Nc1ccc2c(c1)C(=O)N(C)C[C@@H](OC)[C@H](C)CN(C(=O)Cc1ccccn1)[C@H](C)CO2`, the growth inhibition call is “inactive”.
